Biological target: the molecule itself
Assay: SEC-MALS

B1: STIM1([…]) (domain or fragment)
chain: not shown
stoichiometry N: 2

Source: publication PMC2663385 (Nature cell biology, 2009)
